# Screen size: about 410,000 compounds; about 490 (0.12%) were called active. Inconclusive means that the source gave no clear call. Such entries were picked first, then a sample of the others. Calls follow the shape of the dose curve; as a rule, active = well fitted inhibition curve with a large enough effect; inconclusive = small, poorly fitted or top-dose-only effect; inactive = flat fitted curve, though single readings scatter. Potencies beside an inconclusive call are fits to weak or partial responses and may not hold up.
# Target: pyruvate kinase (Trypanosoma brucei) (UniProt Q57TT1)
# Experiment: qHTS of Trypanosoma Brucei Inhibitors; also: nearly all actives have a fitted effect of over 50% in size
# Details: TbPYK enzyme, Kinase-Glo Plus ATP luminescence, 45 min; series mostly up to 76.8 µM
# Procedure, shortened: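 Glycolytic pyruvate kinase of T. brucei was incubated with substrate, test compound and 130 uM ADP for 45 minutes at room temperature. Luminescent Kinase-Glo Plus signal was measured after 10 minutes.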
# Potency is read from the fitted curve at half-maximal effect; tags tell the direction and shape of the fitted curve.
row,SMILES,Potency
1,COc1ccc(-n2c(COc3ccccc3)n[nH]c2=S)cc1,active: 11.2 µM
2,O=C(O)c1cc(O)c2c(c1)[C@@H]([C@H]1c3cc(C(=O)O)cc(O)c3C(=O)c3c(O[C@@H]4O[C@H](CO)[C@@H](O)[C@H](O)[C@H]4O)cccc31)c1cccc(OC3O[C@H](CO)[C@@H](O)[C@H](O)[C@H]3O)c1C2=O (stereo partly drawn),"inconclusive: 35.5 µM [inhibitor, partial curve, poor fit]"
3,O=C(OCc1nnc(-c2ccccc2)o1)c1ccc2c(c1)OCO2,inactive
4,COc1ccc(S(=O)(=O)Nc2cc(SCC(=O)O)c(O)c3ccccc23)cc1,"inconclusive: 25.1 µM [inhibitor, single point]"
5,COc1ccc(CN2C(=O)NC(=O)/C(=C\c3ccco3)C2=O)cc1,"inconclusive: 28.2 µM [inhibitor, partial curve]"
6,CCOc1ccccc1-c1nnc(SCC(=O)NC2(C#N)CCCC2)o1,inactive
7,Cc1ccccc1C(=O)NC(NC(=O)c1ccccc1C)c1cccc([N+](=O)[O-])c1,"inconclusive: 50.1 µM [inhibitor, partial curve, poor fit]"
8,CC1(C(=O)NCCC(F)(F)F)Cc2c(-c3cccc(C(N)=O)c3)ccnc2O1 (stereo not drawn),"inconclusive: 14.1 µM [inhibitor, partial curve, poor fit]"
9,COC(=O)C1=C(C)NC(C)=C(C(=O)OCCCN2CCC(c3ccccc3)(c3ccccc3)CC2)C1c1cccc([N+](=O)[O-])c1 (stereo not drawn),inactive
10,O=C(NCc1ccc(Cl)cc1)C1(c2cccs2)CCOCC1,inactive
11,Cc1ccc(NC(=O)Cn2sc3ccccc3c2=O)cc1,active: 7.94 µM
12,Cc1cc(C)c(Nc2n[nH]c(=S)s2)cc1C,"inconclusive: 12.6 µM [inhibitor, partial curve]"
13,CCn1c(CSc2nc3ccccc3s2)nnc1SCC(=O)c1ccc(O)c(O)c1,"inconclusive: 15.8 µM [inhibitor, partial curve, poor fit]"
14,CCCCn1c(-c2nn(C)c(C)c2Cl)n[nH]c1=S,"inconclusive: 20 µM [inhibitor, partial curve, poor fit]"
15,c1ccc(-c2noc(-c3ccncc3)n2)nc1,"inconclusive: 35.5 µM [inhibitor, single point]"
16,O=C(Nc1nc(-c2ccccn2)cs1)c1ccc(F)c(S(=O)(=O)N2CCOCC2)c1,"inconclusive: 31.6 µM [inhibitor, partial curve]"
17,O=c1c(O)c(-c2ccc3c(c2)OCO3)oc2ccccc12,inactive
18,S=c1[nH]nc(Cc2ccccc2)n1-c1cccc2ccccc12,active: 3.55 µM

# Source: PubChem BioAssay AID624173 (National Center for Advancing Translational Sciences (NCATS), 2012)
